Experimental data as given in the GPR68 mutational scans of Howard et al. (2025).
Scores with a large standard error are left out. The source holds two more conditions with little spread; they are left out. In variant names, del marks residues removed and ins residues inserted between the two positions. For some of these results: The data file names ogerin without a concentration.

B1: GPR68, Q15743 (parent)
chain: MGNITADNSSMSCTIDHTIHQTLAPVVYVTVLVVGFPANCLSLYFGYLQIKARNELGVYLCNLTVADLFYICSLPFWLQYVLQHDNWSHGDLSCQVCGILLYENIYISVGFLCCISVDRYLAVAHPFRFHQFRTLKAAVGVSVVIWAKELLTSIYFLMHEEVIEDENQHRVCFEHYPIQAWQRAINYYRFLVGFLFPICLLLASYQGILRAVRRSHGTQKSRKDQIQRLVLSTVVIFLACFLPYHVLLLVRSVWEASCDFAKGVFNAYHFSLLLTSFNCVADPVLYCFVSETTHRDLARLRGACLAFLTCSRTGRAREAYPLGAPEASGKSGAQGEEPELLTKLHPAFQTPNSPGSGGFPTGRLA

Key:
[1] = variants of: B1; experiment: cAMP reporter score (Enrich2 score, wild type = 0); higher = more signal; HEK293T, FACS bins
[2] = variants of: B1; experiment: surface expression score (Enrich2 score, wild type = 0); higher = more signal; HEK293T, FACS bins

With MGNITADNSSMSCTIDHTIHQTLAPVVYVTVLVVGFPANCLSLYFGYLQIKARNELGVYLCNLTVADLFYICSLPFWLQYVLQHDNWSHGDLSCQVCGILLYENIYISVGFLCCISVDRYLAVAHPFRFHQFRTLKAAVGVSVVIWAKELLTSIYFLMHEEVIEDENQHRVCFEHYPIQAWQRAINYYRFLVGFLFPICLLLASYQGILRAVRRSHGTQKSRKDQIQRLVLSTVVIFLACFLPYHVLLLVRSVWEASCDFAKGVFNAYHFSLLLTSFNCVADPVLYCFVSETTHRDLARLRGACLAFLTCSRTGRAREAYPLGAPEASGKSGAQGEEPELLTKLHPAFQTPNSPGSGGFPTERLA [G362E] the cAMP reporter score ([1]; pH 5.5) was -0.072, the cAMP reporter score ([1]; pH 6) was 0.25 and the cAMP reporter score ([1]; pH 6, modulator: ogerin) was -0.239. The cAMP reporter score ([1]; pH 6.5, modulator: ogerin) was -0.115 and the surface expression score [2] was -0.371.

MGNITADNSSMSCTIDHTIHQTLAPVVYVTVLVVGFPANCLSLYFGYLQIKARNELGVYLCNLTVADLFYICSLPFWLQYVLQHDNWSHGDLSCQVCGILLYENIYISVGFLCCISVDRYLAVAHPFRFHQFRTLKAAVGVSVVIWAKELLTSIYFLMHEEVIEDENQHRVCFEHYPIQAWQRAINYYRFLVGFLFPICLLLASYQGILRAVRRSHGTQKSRKDQIQRLVLSTVVIFLACFLPYHVLLLVRSVWEASCDFAKGVFNAYHFSLLLTSFNCVADPVLYCFVSETTHRDLARLRGACLAFLTCSRTGRAREAYPLGAPEASGKSGAQGEEPELLTKLHPAFQTPNSPGSGGFPTFRLA [G362F] showed a cAMP reporter score ([1]; pH 5.5) of 0.107, a cAMP reporter score ([1]; pH 6) of -1.26 and a cAMP reporter score ([1]; pH 6, modulator: ogerin) of -0.395. It also gave a cAMP reporter score ([1]; pH 6.5, modulator: ogerin) of 0.039 and a surface expression score [2] of 0.3.

For MGNITADNSSMSCTIDHTIHQTLAPVVYVTVLVVGFPANCLSLYFGYLQIKARNELGVYLCNLTVADLFYICSLPFWLQYVLQHDNWSHGDLSCQVCGILLYENIYISVGFLCCISVDRYLAVAHPFRFHQFRTLKAAVGVSVVIWAKELLTSIYFLMHEEVIEDENQHRVCFEHYPIQAWQRAINYYRFLVGFLFPICLLLASYQGILRAVRRSHGTQKSRKDQIQRLVLSTVVIFLACFLPYHVLLLVRSVWEASCDFAKGVFNAYHFSLLLTSFNCVADPVLYCFVSETTHRDLARLRGACLAFLTCSRTGRAREAYPLGAPEASGKSGAQGEEPELLTKLHPAFQTPNSPGSGGFPTHRLA [G362H], the cAMP reporter score ([1]; pH 5.5) was 1.65, the cAMP reporter score ([1]; pH 6, modulator: ogerin) was 1.96 and the cAMP reporter score ([1]; pH 6.5, modulator: ogerin) was 1.58. The surface expression score [2] was 1.06.

In the case of MGNITADNSSMSCTIDHTIHQTLAPVVYVTVLVVGFPANCLSLYFGYLQIKARNELGVYLCNLTVADLFYICSLPFWLQYVLQHDNWSHGDLSCQVCGILLYENIYISVGFLCCISVDRYLAVAHPFRFHQFRTLKAAVGVSVVIWAKELLTSIYFLMHEEVIEDENQHRVCFEHYPIQAWQRAINYYRFLVGFLFPICLLLASYQGILRAVRRSHGTQKSRKDQIQRLVLSTVVIFLACFLPYHVLLLVRSVWEASCDFAKGVFNAYHFSLLLTSFNCVADPVLYCFVSETTHRDLARLRGACLAFLTCSRTGRAREAYPLGAPEASGKSGAQGEEPELLTKLHPAFQTPNSPGSGGFPTIRLA [G362I], the cAMP reporter score ([1]; pH 5.5) is reported as 0.835, the cAMP reporter score ([1]; pH 6) is reported as -0.344 and the cAMP reporter score ([1]; pH 6, modulator: ogerin) is reported as 0.376. It also gave a cAMP reporter score ([1]; pH 6.5, modulator: ogerin) of -0.196 and a surface expression score [2] of 0.641.
